The text below walks through data of publication PMC5515408.

The other results are listed elsewhere or left out. At the low end of the ranking the order means little.

The test system of the experiment is MYC (p64) + MAX (p21), in MYC:MAX. The experiment can be described thus: protein-binding microarray (anti-MAX antibody). The settings on record: PBM: 15 mM Tris-HCl pH 7.5, 100 mM KCl, 0.075% NP40, 7.5 mM beta-mercaptoethanol, 375 ng/ul BSA, 8 ng/ul poly(dA-dT):(dA-dT), 550 ng complex, 60 min, room …; high values mean tight binding; double strand, one strand shown; sequences stand for … in CCGGC…TTAATAGCTAAGATTACTATATCGACG
Take TGAGTAGAAGTA: the binding signal (log2 normalized fluorescence) was -0.511.
With TGATAAGGCGTA the figure was 0.144.
The figure for TGAACAGCGGTA is 0.115; for TGATGGGATGTA it is 0.0794; for TGACGGTCCGTA it is 0.087.
With TGAGCCCGCGTA the figure was 0.0659.
Turning to TGAATCAGGGTA, the binding signal (log2 normalized fluorescence) came out at 0.22.
The figure for TGATTTTAGGTA is -0.303.
With TGAGATACCGTA the figure was 0.0749; with TGACATCCGGTA, 0.231.
The figure for TGAGTACTGGTA is -0.0462; for TGATAAGGAGTA it is -0.179.
As for ACCCACGTGGTA, the binding signal (log2 normalized fluorescence) is 0.845.
In the case of TGACAGAAGGTA, the binding signal (log2 normalized fluorescence) came to 0.162.
The figure for TGACGGGCAGTA is -3.08e-05.
Regarding TGACTAATAGTA, the binding signal (log2 normalized fluorescence) is -0.149.
In the case of TGACCGTAAGTA, the binding signal (log2 normalized fluorescence) came out at 0.214.
The figure for TGATGATCAGTA is 0.194; for TGATTGCAAGTA it is 0.0964.
The figure for TGAGCGGAGGTA is -0.0595; for TGATCTGGGGTA it is -0.00296.
The figure for TGAATTGGAGTA is -0.206; for TGATACTGAGTA it is -0.234.
Turning to TGATCACCGGTA, the binding signal (log2 normalized fluorescence) was determined as 0.279.
The figure for TGATCGACCGTA is 0.0624; for TAAGATACCACT it is 0.161.
On to TGACGAGGAGTA, for which the binding signal (log2 normalized fluorescence) turned out to be 0.0602.
The figure for TGACATGGGCTA is 0.235.
As to TGGCGCATGGTA, the binding signal (log2 normalized fluorescence) was 0.571.
For TGACTCCTAGTA, the binding signal (log2 normalized fluorescence) is -0.161.
With TGATACGCTGTA the figure was 0.216; with TGACGGCGAGTA, -0.00993.
The figure for TGAATGAGAGTA is -0.0627; for TGATGTTGAGTA it is -0.0114.
TGAGACAAAGTA: the binding signal (log2 normalized fluorescence) was -0.00541.
With CCCAAACTTCGA the figure was 0.0995; with TGAGTAATTGTA, -0.179.
The figure for TGAACTTGGGTA is 0.0861.
For TGACGCAGTGTA, the binding signal (log2 normalized fluorescence) was determined as 0.123.
With TGAGGACCGGTA the figure was -0.014; with TGACAGTATGTA, 0.19; with TGAGTGTGAGTA, 0.101.
Regarding TGACGGCCCGTA, the binding signal (log2 normalized fluorescence) came to 0.0646.
With GGACGCGTGGTA the figure was 0.64; with TGATGTTGTGTA, 0.0276; with TACGAATATGGT, 0.0675.
The figure for TGACAATGAGTA is 0.151; for TGAGCCAGCGTA it is -0.123.
On to TGAAATCTGGTA, for which the binding signal (log2 normalized fluorescence) worked out at 0.0182.
The figure for TGATTGGCCGTA is -0.191; for TGATTTATCGTA it is -0.105; for TGATTGGAAGTA it is -0.105.
With CGACACGTGCTA the figure was 0.722.
The figure for TACAACGTGGTA is 0.8; for TGATGGACAGTA it is -0.0704; for TGGTACGTGGTC it is 0.364.
Regarding TGAGGATGAGTA, the binding signal (log2 normalized fluorescence) was -0.0995.
The figure for TTGCATATTTAC is 0.267; for TGACATTGGGTT it is 0.187; for TGAGGCGTGGTA it is 0.519.
With TGAAACGGCGTA the figure was -0.08.
The figure for TGACATTTAGTA is 0.0518; for TGATTTATGGTA it is 0.0504.
Take TAGCACGTGTTT: the binding signal (log2 normalized fluorescence) turned out to be 0.813.
The figure for TGAGTGAAAGTA is -0.142; for TGAAGTGTGGTA it is 0.471; for TGACCTGACGTA it is 0.202.
With TGAGTGTACGTA the figure was 0.274; with TGAGTCCTTGTA, -0.327; with TGAATGTCAGTA, 0.158.
The figure for CGACGCGTGGTA is 0.626; for TGACTTTAAGTA it is -0.151.
As for TGAGATTTAGTA, the binding signal (log2 normalized fluorescence) was -0.239.
The figure for TGACTCGTAGTA is 0.146.
The figure for TGATAGGACGTA is -0.191; for TGAACCTAAGTA it is 0.0538.
The figure for TGACCTCGGGTA is 0.22; for TGCAACGTCGTT it is 0.19.
Consider TGAGAGGAAGTA, for which the binding signal (log2 normalized fluorescence) is -0.00543.
The figure for TGAAATGCTGTA is 0.351.
As for TGATCGGTGGTA, the binding signal (log2 normalized fluorescence) was found to be 0.157.
With TGAAAAGTAGTA the figure was 0.0765.
The figure for TGCCACGTGCTT is 0.652.
With TGAGGATACGTA the figure was 0.0654; with TGAACTGAAGTA, 0.0246.
In the case of TGAATAGTTGTA, the binding signal (log2 normalized fluorescence) is -0.0841.
With TGACACCTGGTC the figure was 0.371; with TGATCGGCAGTA, -0.114.
In the case of TGACTTTACGTA, the binding signal (log2 normalized fluorescence) was determined as 0.207.
With TGATCTCTTGTA the figure was -0.0736; with TGAGCCTTCGTA, -0.0709.
The figure for TGATCGAGGGTA is -0.0166; for TGATCTAAAGTA it is -0.109.
The figure for TGACATTCGGTA is 0.183; for TGATGGCGAGTA it is 0.253.
On to TGAGGCCACGTA, for which the binding signal (log2 normalized fluorescence) came to 0.215.
With TGAATTTGCGTA the figure was -0.00541.
The figure for TGAATTTCGGTA is -0.0508; for TGATACTCCGTA it is -0.0605; for TGAGCGTAAGTA it is 0.00698.
For the sequence TGAGAATGGGTA, the binding signal (log2 normalized fluorescence) was 0.181.
With TGAGAGGCTGTA the figure was 0.0572; with TGATAGCGGGTA, 0.0571; with TGACCTATCGTA, -0.0576.
With TGAGCACGCGTA the figure was 0.324.
The figure for TGAAGGCATGTA is 0.376; for TGATCGAGAGTA it is 0.0768.
Turning to TGAGAGAGAGTA, the binding signal (log2 normalized fluorescence) is -0.334.
With TGAAAACGTGTA the figure was 0.422.
The figure for AGACAAGTGGTA is 0.271; for TGAGGCACCGTA it is 0.154.
With TGAAATACTGTA the figure was 0.0408.
As to TGATAATAAGTA, the binding signal (log2 normalized fluorescence) is -0.172.
The figure for TGATGTGTCGTA is 0.188.
The figure for TGAGTAAGAGTA is -0.216; for TGAAGGTACGTA it is 0.115; for TGATAGTAGGTA it is -0.255.
Regarding TGAACTCCCGTA, the binding signal (log2 normalized fluorescence) is 0.0712.
With TGATCGCCTGTA the figure was 0.0287; with CACCACGTGGTA, 0.975; with TGAGCAGCCGTA, -0.0524.
The figure for TGAGTAGACGTA is -0.00585.
Turning to AATGCATTTTTT, the binding signal (log2 normalized fluorescence) is 0.535.
The figure for TGATCACGAGTA is 0.422; for TGACAAGTAGTA it is -0.00895.
With TGACAAAATGTA the figure was 0.174; with TGTCACGGGGTA, 0.659.
The figure for TGAAGTATGGTA is 0.237; for TGACAGGACGTA it is 0.0545.
For TGATTTCCCGTA, the binding signal (log2 normalized fluorescence) worked out at 0.0833.
In the case of TGACATCATGTA, the binding signal (log2 normalized fluorescence) came to 0.54.
The figure for TGAAATGTTGTA is -0.0557.
The figure for TGATCCAAAGTA is -0.00515; for TGACCGACTGTA it is 0.018.
As to TGATGCCATGTA, the binding signal (log2 normalized fluorescence) was determined as 0.22.
The figure for TGAGCAGTAGTA is -0.0862; for TGACACGGGTAA it is 0.24.
